Experimental data published in PubChem BioAssay AID1745853 (National Center for Advancing Translational Sciences (NCATS), 2022).
“And” between values parts separate entries of the source, which are not always exact repeats. Equal entries are not always repeated. The list shows a part of the results. Shown are side measurements of this screen, not its main read-out; they come without a call.

Legend:
Assay in all cases: Primary Screen for Target Class Profiling of Small Molecule Inhibitors of Methyltransferases
[1] = biological target: Glycine N-methyltransferase (Homo sapiens) (UniProt Q14749); conditions: purified enzyme, MTase-Glo SAH luminescence; measured here: GNMT inhibition; at 40 µM; stronger effect = lower value
How it was run: (§1)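 Each enzyme was reacted with SAM and its substrate, with compounds tested once at 40 uM; SAH formed was read by MTase-Glo luminescence.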

[2] = biological target: Guanidinoacetate N-methyltransferase (Homo sapiens) (UniProt Q14353); conditions: purified enzyme, MTase-Glo SAH luminescence; measured here: GAMT inhibition; at 40 µM; stronger effect = lower value
How it was run: as §1

[3] = biological target: Histamine N-methyltransferase (Homo sapiens) (UniProt P50135); conditions: purified enzyme, MTase-Glo SAH luminescence; measured here: HNMT inhibition; at 40 µM; stronger effect = lower value
How it was run: as §1

[4] = biological target: Nicotinamide N-methyltransferase (Homo sapiens) (UniProt P40261); conditions: purified enzyme, MTase-Glo SAH luminescence; measured here: NNMT inhibition; at 40 µM; stronger effect = lower value
How it was run: as §1

[5] = biological target: Phenylethanolamine N-methyltransferase (Homo sapiens) (UniProt P11086); conditions: purified enzyme, MTase-Glo SAH luminescence; measured here: PNMT inhibition; at 40 µM; stronger effect = lower value
How it was run: as §1
% is scaled to controls: 0 for no effect and ±100 for the full control effect.

SMILES | activity change, negative = inhibition [1] | activity change, negative = inhibition [2] | activity change, negative = inhibition [3] | activity change, negative = inhibition [4] | activity change, negative = inhibition [5]
COC(=O)c1cc2n(n1)CC(C)(C(=O)NC1CCCCC1)N(Cc1ccccc1OC)C2=O (stereo unspecified) | 5.65% | 6.94% | 11.5% | 2.81% | 4.25%
NC1(c2ccc(-c3nc4ccn5c(=O)[nH]nc5c4cc3-c3ccccc3)cc2)CCC1 | -92.9% | 2.82% | -32.5% | -36.7% | -15.8%
CCC(C)NC(=O)c1ccc2c(=O)n(C(C)C)c3nn(Cc4ccccc4C)c(=O)n3c2c1 (stereo unspecified) | -0.228% | 0% | -1.66% | 1.39% | 1.26%
CCN(CC)CCCS(=O)(=O)N[C@H](CCc1ccccc1)c1nc(Cc2ccc(Br)cc2)no1 | 1.96% | 15.7% | -1.95% | -0.727% | 4.4%
COc1ccc2cc3n(c2c1)CC(C)(C(=O)NC1CCCCC1)N(CCN1CCN(C)CC1)C3=O (stereo unspecified) | 3.23% | -1.61% | 3.09% | 2.19% | -1.89%
C[C@@H]1C/C=C/C=C\C=C\C=C\[C@H](O[C@@H]2O[C@H](C)[C@@H](O)[C@H](N)[C@@H]2O)C[C@@H]2O[C@](O)(C[C@@H](O)C[C@H]3O[C@@H]3/C=C/C(=O)O1)C[C@H](O)[C@H]2C(=O)O | 2.26% | – | 0.142% | – | –
CCC[C@H](N[C@@H](C)C(=O)N1[C@H](C(=O)O)C[C@@H]2CCCC[C@@H]21)C(=O)O | 0.689% | -7.42% | -1.96% | -15% | -8.01%
CC(C)NS(=O)(=O)c1ccc2[nH]c(=O)[nH]c2c1 | 6.19% | 0.187% | 4.93% | -2.14% | -1.34%
COc1ccc(NC(=O)CSc2nnc3n(CCC(C)C)c(=O)c4ccccc4n23)cc1 | -0.207% | 0% | 11.7% | -7.07% | 7.42%
O=C1NC(=O)/C(=C/c2ccc(-c3ccc(F)cc3O)o2)S1 | -52.7% | -5.68% | -6.11% | -10.2% | -2.28%
COc1cccc2nc(-c3cccs3)nc(NN3C(=O)C=C(C)C3=O)c12 | -19.8% | -11% | -5.29% | -25.9% | -10.1%
CC(C)CCNC(=O)Cn1ccc2cc(S(=O)(=O)N3CCCCC3)ccc21 | 3.86% | 1.45% | 3.52% | 0.929% | -0.554%
O=C(NC1Cc2ccccc2N(C[C@@H](O)CO)C1=O)c1cc2cc(Cl)sc2[nH]1 (stereo partly specified) | 3.39% | 6.81% | 6.01% | -12.1% | -1.84%
Cc1cccnc1NCCNC(=O)c1ccc(S(N)(=O)=O)cc1 | -0.455% | -2.89% | 1.21% | 1.34% | -3.21%
CC(C)C1CN(c2ccc(C#N)cn2)CCC(=O)N1Cc1ccc(F)cc1 (stereo unspecified) | -1.25% | -0.155% | -2.42% | -2.58% | -1.99%
COc1ccc(C(=O)NCc2cc(C(C)C)no2)cc1OC1CCN(C)CC1 | 0.737% | -0.152% | -14.2% | -14.2% | 2.2%
O=C(c1ccc(Cl)cc1)N1CC2(CCCN2C2COC2)Cc2ccccc21 (stereo unspecified) | -5.22% | -4.04% | -3.77% | -5.19% | 0.88%
c1ccc(CN2CCc3[nH]cnc3C2c2ccc(-c3ccccn3)cc2)nc1 (stereo unspecified) | -6.93% | -4.49% | -14.6% | -10.7% | 2.87%
C1CCC(c2noc(COCC3CC3)n2)NC1 (stereo unspecified) | -2.71% | -2.93% | -1.86% | -4.29% | -4.77%

SMILES | activity change, negative = inhibition [1] | activity change, negative = inhibition [2] | activity change, negative = inhibition [3] | activity change, negative = inhibition [4] | activity change, negative = inhibition [5]
COc1nccnc1NC1CCN(C(=O)c2cccc(C)c2)CC1 | -5.22% | -2.64% | -1.84% | -2.99% | 0.382%
Cn1c(=O)n(C)c2cc(S(=O)(=O)N3CCN(c4ccc(F)cc4)CC3)ccc21 | -10.3% | 0% | -11.2% | -11.7% | -11.9%
Cc1nc(C)c(C(=O)N2CCCC2c2nc(CCOCC3CCCC3)no2)s1 (stereo unspecified) | -1.74% | -0.229% | 2.43% | -2.6% | 2.7%
Cc1ccccc1CN1CC2(COCC1=O)CN(c1ccc(C(F)(F)F)cn1)C2 | -11.6% | 3.1% | 1.94% | -7.59% | 1.2%
O=C(NCC(=O)N1CCCC1)Nc1ccc2ccccc2c1 | -3.92% | -8.21% | 6.64% | -18.2% | -36.5%
COc1ccc(OC)c(CNC(=O)c2cc3n(n2)CC(C)(C(=O)NCc2ccc(F)cc2)N(C)C3=O)c1 (stereo unspecified) | 0.972% | 4.46% | -2.97% | 3.78% | 2.58%
CC(C)NC(=O)c1ccc2c(=O)n(Cc3ccccc3)c3nn(Cc4c(F)cccc4Cl)c(=O)n3c2c1 | 2.2% | 0% | 4.18% | 4.87% | 6.03%
Clc1ccc2c(c1)N=C(N1CCNCC1)c1ccccc1N2 | -6.78% and -17.8% | -7.21% and 14% | 0.818% and 3.99% | -26.4% and -3.87% | -6.12% and 9.76%
C[C@@H](Oc1cc(-n2cnc3ccc(OC4CCN(C)CC4)cc32)sc1C(N)=O)c1ccccc1C(F)(F)F | -80.9% | -87.1% | -91.8% | -95.7% | -92.5%
COc1cc2c(cc1OC(C)C)[C@H](c1ccc(Cl)cc1)N(c1ccc(N(C)CC3CCC(N4CCN(C)C(=O)C4)CC3)cc1)C(=O)C2 (stereo partly specified) | -14.4% | 11.2% | -20.8% | -14.6% | -10.6%
COc1ccc(/C=C/C(=O)O[C@@H]2[C@@H](OC(C)=O)[C@@H](OC(C)=O)[C@H](O[C@H]3[C@@H]4C=CO[C@@H](O[C@@H]5O[C@H](CO)[C@@H](O)[C@H](O)[C@H]5O)[C@@H]4[C@@]4(CO)O[C@@H]34)O[C@H]2C)cc1 | 0% | 7.02% | 4.92% | -4.22% | 9.59%
CC(C)CCn1c(=O)c2ccc(C(=O)NC3CCCCC3)cc2n2c(=O)n(Cc3cccc(F)c3)nc12 | 0.27% | 4.5% | 3.16% | 0.77% | 0.191%
Cc1noc(C2CC3(CCN(C(=O)CCc4c[nH]c5ccccc45)CC3)CN2C)n1 (stereo unspecified) | -2.22% | -0.505% | -0.466% | -2.4% | -5.02%
CCC(C)NC(=O)c1ccc2c(=O)n(C(C)C)c3nn(CC(=O)Nc4cccc(C)c4)c(=O)n3c2c1 (stereo unspecified) | 2.24% | 0.48% | -0.836% | 1.27% | -2.43%
CC(C(=O)NCc1cccnc1)n1ccc2cc(S(=O)(=O)N3CCCC3)ccc21 (stereo unspecified) | 9.24% | 2.18% | 5.99% | 10.8% | 4.43%
COc1ccccc1CNC(=O)C1(C)Cn2c(cc3ccccc32)C(=O)N1Cc1cccc(OC)c1OC (stereo unspecified) | -1.2% | 3.09% | 3.36% | 0.417% | 0.22%
COc1ccc(OC)c(CCN2C(=O)c3cc4occc4n3CC2(C)C(=O)NC2CCCCC2)c1 (stereo unspecified) | 0.203% | 3.73% | 0.678% | 3.49% | 1.33%
O=C(c1cc(-c2ccc(Cl)cc2Cl)c2cccn2n1)N1CCCC1 | -11.2% | -0.71% | -7.08% | -24.4% | -4.46%
CCc1ccc(N2C(=O)c3c(C(=O)OC)ncn3CC2(C)C(=O)NC2CCCCCC2)cc1 (stereo unspecified) | -0.254% | 3.96% | 1.28% | 4.95% | 0.618%

SMILES | activity change, negative = inhibition [1] | activity change, negative = inhibition [2] | activity change, negative = inhibition [3] | activity change, negative = inhibition [4] | activity change, negative = inhibition [5]
O=c1c2c(CO)c(-c3ccccc3)nn2ccn1Cc1ccccc1 | -3.56% | -3.26% | -0.49% | -4.37% | -3.21%
Cc1ccc(-c2nnn3c2nc(NCCC(C)C)c2ccccc23)cc1 | 0.922% | 2.2% | -1.58% | -2.76% | -3.52%
C/C(=N\N=C(N)N)c1cc(NC(=O)CCCCCCCCC(=O)Nc2cc(/C(C)=N/N=C(N)N)cc(/C(C)=N/N=C(N)N)c2)cc(/C(C)=N/N=C(N)N)c1 | -54.7% | -37.1% | -90.1% | -70.2% | -61.4%
O=C(Nc1ccc2c(c1)OCCO2)N1CCC(Cc2nc(-c3ccncc3)n[nH]2)C1 (stereo unspecified) | -27.3% | -22.3% | -24.9% | -37.6% | -41.1%
O=C(NCCc1ccccc1)c1ccc2c(=O)nc3c(-c4ccccc4F)n[nH]n3c2c1 | -6.86% | 0% | 1.6% | 6.4% | -1.64%
CC(C)Oc1ccc(CN2C(=O)c3cc4occc4n3CC2(C)C(=O)NC2CCCCC2C)cc1 (stereo unspecified) | -3.48% | 5.61% | -1.43% | -7.6% | -5.46%
CCn1c(=O)c(-c2ccc(-c3cncs3)cc2Cl)cc2cnc(Nc3ccc(N4CCN(C)CC4)cc3)nc21 | -3.31% | 1.33% | -27.1% | -14% | -6.15%
O=C(CCn1ccc2cc(S(=O)(=O)N3CCCCC3)ccc21)N1CCN(c2ccccn2)CC1 | -1.97% | 1.38% | -4.51% | -3.02% | -1.45%
COc1ccc(CC(=O)N2C[C@@H](CO)[C@H](c3ccccn3)C2)cc1 | -1.67% | -0.655% | 1.26% | -1.46% | -5.61%
Nc1nc(CC(=O)Nc2ccc(CCNCC(O)c3ccccc3)cc2)cs1 (stereo unspecified) | -4.33% | – | 3.75% | – | –
CCCn1c(=O)c2ccc(C(=O)NC(C)C)cc2n2c(=O)n(CC(=O)Nc3ccc(C)c(C)c3)nc12 | 6.56% | 4.8% | 8.11% | 4.46% | 4.37%
Cc1cccc(NC(=O)CSc2nnc3n(CC(C)C)c(=O)c4ccc(C(=O)NCC(C)C)cc4n23)c1 | -7.48% | 4.16% | 2.16% | 2.91% | -2.2%
O=C(Cn1c(=O)oc2cc(S(=O)(=O)N3CCCCC3)ccc21)N1CCc2ccccc2C1 | -3.26% | 0% | 5.6% | 9.78% | -20.7%
C=C1C(OC2OCC(O)C(O)C2O)CC2C(C)(C)C(O)CCC2(C)C1CC/C(C)=C\CO (stereo unspecified) | -2.06% | 4.14% | 7.48% | -9.9% | -6.73%
O=S1(=O)CCN(Cc2cc(NCC3CCOCC3)c3[nH]c(-c4ccccc4)cc3c2)CC1 | -14.4% | -47.2% | -18.5% | -57.6% | -22.6%
CO[C@H]1/C=C/[C@@](C)(O)/C=C/C(=O)O[C@H](C)[C@@H](C)CC/C=C/1C | -10.2% | -18% | -15.2% | -23.4% | -14.7%
CC1CCN(S(=O)(=O)c2ccc3c(ccn3CC(=O)NC3CCCc4ccccc43)c2)CC1 (stereo unspecified) | 4.69% | 0.738% | 3.67% | 5.97% | 1.62%
CCC[C@H]1C[C@H](C(=O)N[C@@H]([C@@H]2O[C@@H](SC)[C@@H](O)[C@@H](O)[C@@H]2O)[C@H](C)Cl)N(C)C1 | 3.76% | – | 3.75% | – | –
CC[C@H]1CN2CCc3cc(OC)c(OC)cc3[C@@H]2C[C@@H]1C[C@H]1NCCc2cc(OC)c(OC)cc21 | -7.88% | 5.71% | -8.56% | -3.82% | 6.88%
